Among all 48,000 compounds or so, about 550 (1.1%) were called active. Not shown: some 4% with an inconclusive outcome. Rule as the data show it: active = potency below about 15 µM; inconclusive = mostly about 16 µM to 33 µM; inactive = weaker than that. The list shows a part of the results.
Potency is read from the fitted curve at half-maximal effect.

The target of the assay is Lysosomal acid glucosylceramidase (Homo sapiens) (UniProt P04062). Briefly: Glucocerebrosidase.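 Also: the screen sought inhibitors.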 To be noted: purified enzyme, resorufin glucoside fluorescence (screen aimed at inhibitors), 20 min; series mostly up to 77 µM. Summed up: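 Normal human glucocerebrosidase (0.2 nM final) was assayed with resorufin β-D-glucopyranoside (30 uM final) in 50mM citric acid/KH2PO4, 10mM sodium taurocholate, 0.01% tween-20, pH 5.9. Compounds were titrated; fluorescence (Ex 548, Em 600) read after 20 min at RT.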
Sequence of UniProt P04062 (P04062 whole entry, looked up): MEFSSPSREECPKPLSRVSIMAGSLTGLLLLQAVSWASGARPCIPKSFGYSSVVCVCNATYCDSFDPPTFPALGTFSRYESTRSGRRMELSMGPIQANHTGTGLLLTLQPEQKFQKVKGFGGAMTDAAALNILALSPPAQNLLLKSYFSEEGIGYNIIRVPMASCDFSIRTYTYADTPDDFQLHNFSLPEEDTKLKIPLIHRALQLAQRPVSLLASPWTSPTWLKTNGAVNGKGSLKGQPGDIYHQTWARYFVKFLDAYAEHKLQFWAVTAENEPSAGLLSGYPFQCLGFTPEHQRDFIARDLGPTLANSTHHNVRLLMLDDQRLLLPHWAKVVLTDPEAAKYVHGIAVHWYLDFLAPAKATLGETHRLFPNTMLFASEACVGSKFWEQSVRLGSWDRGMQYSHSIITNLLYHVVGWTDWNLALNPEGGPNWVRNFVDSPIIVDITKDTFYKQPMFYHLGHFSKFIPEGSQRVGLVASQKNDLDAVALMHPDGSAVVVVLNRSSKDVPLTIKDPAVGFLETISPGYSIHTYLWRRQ
On to `O=C(Oc1cccc2c(OC(=O)N3CCOCC3)cccc12)N1CCOCC1`, for which the Potency was inactive: > 76.9 µM.
`COC(=O)CSc1nnc(CNC(=O)Cc2ccccc2)n1C`: the Potency is inactive: > 76.9 µM.
With `Cc1c(C(=O)OC2CCCCC2)[nH]c2c1C(=O)CC(C)(C)C2`, the Potency was inactive: > 76.9 µM.
Turning to `CC1(C)CC(CCNC(=O)c2ccco2)CC(C)(C)N1`, the Potency is inactive: > 76.9 µM.
Regarding `Cc1cc(C(=O)NC2=NCCS2)cs1`, the Potency was inactive: > 76.9 µM.
As for `COc1ccc(N2C(=O)c3ccc(NC(C)=O)cc3C2=O)cc1`, the Potency is inactive: > 76.9 µM.
The figure for `O=C(NCc1cccs1)c1noc2c1CCCC2` is inactive: > 76.9 µM; for `CCC(=O)Nc1c2c(nn1-c1ccccc1C)CSC2` it is inactive: > 76.9 µM; for `CCCCOc1ccc(NC(=O)CSc2nnnn2C)cc1` it is inactive: > 76.9 µM.
The same measure for `CCc1nnc(-n2nc(C)cc2-c2ccccc2)n1N`: inactive: > 76.9 µM.
For `CCOC(=O)N1CCC(N2CCN(S(=O)(=O)c3ccc(NC(C)=O)cc3)CC2)CC1`, the Potency is inactive: > 76.9 µM.
Regarding `C=CS(=O)(=O)c1ccc(Oc2ccc(S(=O)(=O)C=C)cc2)cc1`, the Potency is inactive: > 76.9 µM.
The same measure for `COc1ccc2nc(SCC(=O)NC(C)C)[nH]c2c1`: inactive: > 76.9 µM.
With `CCC1CCCCN1C(=O)CSc1nnc(-c2cccs2)o1` (stereo not drawn), the Potency was inactive: > 76.9 µM.
In the case of `Cc1n[nH]c(C)c1C(=O)CC1(O)C(=O)N(CCc2ccccc2)c2ccc(Cl)cc21` (stereo not drawn), the Potency is inactive: > 76.9 µM.
Regarding `CCOC(=O)CSc1nc(C2CC2)nc2ccccc12`, the Potency is inactive: > 76.9 µM.
Take `Cc1nonc1NC(=O)N1CCCC1`: the Potency was inactive: > 76.9 µM.
Regarding `CCOC(=O)N1CCN(C(=O)c2nc3ccccc3s2)CC1`, the Potency is inactive: > 76.9 µM.
The same measure for `O=C(NCc1ccc(Cl)cc1)c1ccc(COCC(F)(F)F)o1`: inactive: > 76.9 µM; for `CC1(C)CC(=O)c2cc(OCC(=O)O)ccc2O1`: inactive: > 76.9 µM; for `Cc1cc2ccccc2c(=O)n1CC(=O)NCC(=O)N(C)Cc1ccccc1`: inactive: > 76.9 µM.
The same measure for `CC(=O)c1cccc(N=C2C(=O)Nc3ccccc32)c1`: inactive: > 76.9 µM.
The same measure for `CS(=O)(=O)N1CCN(C(=O)c2cc(-c3ccncc3)nc3ccc(Cl)cc23)CC1`: inactive: > 76.9 µM.
`Clc1ccc2c(c1)CNc1c(ncnc1N1CCOCC1)O2`: the Potency is inactive: > 76.9 µM.
On to `CC(C)CCNC(=O)CN(CC1CCCO1)C(=O)CCC(=O)Nc1ccccn1` (stereo not drawn), for which the Potency was inactive: > 76.9 µM.
The figure for `COc1cccc(/C(O)=C2/C(=O)C(=O)N(CCN3CCOCC3)C2c2cccnc2)c1` (stereo not drawn) is inactive: > 76.9 µM; for `Cc1ccc2nc(C(F)OC(F)(F)F)[nH]c2c1` (stereo not drawn) it is inactive: > 76.9 µM; for `Cc1ccc(N2CC(C(=O)Nc3nccs3)CC2=O)cc1` (stereo not drawn) it is inactive: > 76.9 µM.
The same measure for `C=C(C)n1c(=O)[nH]c2ccccc21`: inactive: > 76.9 µM.
Turning to `CCc1c(O)nc(SCC(=O)Nc2ccc3c(c2)CCC3)[nH]c1=O`, the Potency is inactive: > 76.9 µM.
The same measure for `C=CCNC(=O)CSc1ccc(Cl)cc1`: inactive: > 76.9 µM; for `CC(=O)c1cccc(NC(=O)CCS(=O)(=O)c2cccc3nonc23)c1`: inactive: > 76.9 µM; for `O=C(CCC1N=C2c3ccccc3N=C(SCc3ccc(Cl)cc3)N2C1=O)NCc1ccco1` (stereo not drawn): inactive: > 76.9 µM.
Consider `CC1(C)Oc2ccc(C(=O)N3CCOCC3)cc2N(CC(=O)Nc2ccccc2)C1=O`, for which the Potency is inactive: > 76.9 µM.
The same measure for `Cc1noc(C)c1C(=O)NC(C)C1CCCO1` (stereo not drawn): inactive: > 76.9 µM; for `c1ccc(-c2cnnc(N3CCCCC3)n2)cc1`: inactive: > 76.9 µM; for `Cc1ccc2[nH]c(=O)c(CN(CC3CCCO3)S(=O)(=O)c3c(C)ccc4nsnc34)cc2c1` (stereo not drawn): inactive: > 76.9 µM.
In the case of `CCCCC(NC(C)=O)c1nc2ccccc2n1CCC` (stereo not drawn), the Potency was inactive: > 76.9 µM.
The same measure for `CCN(CC)S(=O)(=O)c1ccc(S(=O)(=O)Nc2ccc(C(=O)N3CCCC3)cc2)cc1`: inactive: > 76.9 µM; for `O=C(NCc1ccncc1)c1c(F)c(F)c(F)c(F)c1F`: inactive: > 76.9 µM; for `Cc1cc(N2C(=O)C(O)=C(C(=O)c3ccc(C)o3)C2c2cccs2)no1` (stereo not drawn): inactive: > 76.9 µM.
The same measure for `CC(C)OC(=O)c1cccc(C(=O)O)n1`: inactive: > 76.9 µM; for `Cc1cc(NC(=O)C2CC(c3cccc(Br)c3)=NO2)no1` (stereo not drawn): inactive: > 76.9 µM.
Consider `O=C(OCC(=O)N1CCN(C(=O)c2ccco2)CC1)c1cc(=O)c2ccccc2o1`, for which the Potency is inactive: > 76.9 µM.
The figure for `CCC(Sc1ncccc1C(=O)O)C(=O)N1CCOCC1` (stereo not drawn) is inactive: > 76.9 µM; for `O=C(Cc1cccs1)NCc1ccncc1` it is inactive: > 76.9 µM; for `CCOc1ccc2nc(NC(=O)c3cnccn3)sc2c1` it is inactive: > 76.9 µM.
The figure for `CCOC(=O)c1c(C)[nH]c(C(=O)OC/C(O)=C(\C#N)c2nc3ccccc3[nH]2)c1C` is inactive: > 76.9 µM.
The same measure for `COc1ccc(C(CC(=O)O)NC(=O)c2ccco2)cc1OC` (stereo not drawn): inactive: > 76.9 µM; for `CCN1C(=O)N(CN2CCOCC2)C2C1N(CN1CCOCC1)C(=O)N2CC` (stereo not drawn): inactive: > 76.9 µM.
With `CCOc1ccc(C(=O)c2cccs2)cc1`, the Potency was inactive: > 76.9 µM.
The same measure for `O=C(CCCn1c(=O)c2sccc2n(Cc2ccc(F)cc2)c1=O)NCc1ccco1`: inactive: > 76.9 µM; for `COc1ccccc1C1CC(c2ccccc2)Nc2ncnn21` (stereo not drawn): inactive: > 76.9 µM.
The same measure for `Cc1ccc(S(=O)(=O)c2cc3c(=O)n4ccccc4nc3n(Cc3ccco3)c2=N)cc1`: inactive: > 76.9 µM.
Take `COCC(=O)Nc1nc2ccc(C)cc2s1`: the Potency was inactive: > 76.9 µM.
The same measure for `COc1ccccc1CNC(=O)COc1ccccc1OC`: inactive: > 76.9 µM; for `CCCCCc1c(C)nc(N2CCc3ccccc32)[nH]c1=O`: inactive: > 76.9 µM; for `CCCS(=O)(=O)N1CCCC(C(=O)NC2CCCCC2)C1` (stereo not drawn): inactive: > 76.9 µM.
The same measure for `COc1ccccc1-c1nn2c(C(F)(F)F)nnc2s1`: inactive: > 76.9 µM; for `CCCCOc1c(Cl)cc(CNC(C)(C)CO)cc1OCC`: inactive: > 76.9 µM.
The same measure for `c1csc(-c2cnc3n2CCCC3)c1`: inactive: > 76.9 µM; for `CCOC(=O)Nc1ccc2c(c1)ncn2C1CCCCC1`: inactive: > 76.9 µM; for `COC(=O)Cn1c(=O)cnc2ccccc21`: inactive: > 76.9 µM.
Take `CCc1ccc(NC(=O)CSc2nc3ccccc3c(=O)n2CCN2CCOCC2)cc1`: the Potency was inactive: > 76.9 µM.
The same measure for `COc1ccccc1Cn1c(CCCO)nc2ccccc21`: inactive: > 76.9 µM; for `O=C(Nc1ccc2c(c1)OCO2)c1cccc(F)c1`: inactive: > 76.9 µM.
The same measure for `O=S(=O)(c1ccccc1)N1CCN(c2nnnn2-c2ccccc2)CC1`: inactive: > 76.9 µM; for `O=C1CCCN1C(=O)CCC(=O)N1CCCC1=O`: inactive: > 76.9 µM.
In the case of `CCOCCCNC(=O)C(NC(=O)c1cnccn1)c1ccc(OC)cc1` (stereo not drawn), the Potency is inactive: > 76.9 µM.
On to `Cc1nnc(NC(=O)C2CCCO2)s1` (stereo not drawn), for which the Potency was inactive: > 76.9 µM.
Consider `CCOC(=O)C1CCCN(Cc2nc(N)nc(Nc3ccc(OC)cc3)n2)C1` (stereo not drawn), for which the Potency was inactive: > 76.9 µM.
As for `CCOC(=O)C1CCN(S(=O)(=O)c2ccc(-c3nc4ccccc4s3)s2)CC1`, the Potency is inactive: > 76.9 µM.
The same measure for `COc1ccc(C2C(C(=O)NCC3CCCO3)c3cc(OC)c(OC)cc3C(=O)N2C)cc1OC` (stereo not drawn): inactive: > 76.9 µM; for `Cn1c(/C=C/N2CCOCC2)c(C(=O)c2ccc(Br)cc2)c(=O)n(C)c1=O`: inactive: > 76.9 µM.
The figure for `O=C(NC1CCCC1)C1C2C=CC(C2)C1C(=O)N1CCOCC1` (stereo not drawn) is inactive: > 76.9 µM; for `O=C(Cn1cnc2ccccc2c1=O)NC1CCCc2ccccc21` (stereo not drawn) it is inactive: > 76.9 µM.
The figure for `Cn1c(=O)c2c(nc(CN3CCN(c4ccccc4)CC3)n2CCCc2ccccc2)n(C)c1=O` is inactive: > 76.9 µM; for `COc1ccc(Cl)c(NC(=O)Cn2nnc(-c3ccccc3N)n2)c1` it is inactive: > 76.9 µM; for `O=C(NC(Cc1ccccc1)C(=O)OCC(=O)N1CCc2ccccc21)c1ccco1` (stereo not drawn) it is inactive: > 76.9 µM.
Take `CCOc1ccc(CNC(=O)C2CCN(S(=O)(=O)CC)CC2)cc1OC`: the Potency is inactive: > 76.9 µM.
Take `c1ccc(Cn2nnnc2C(c2cccnc2)N2CCN(C3CCCCC3)CC2)cc1` (stereo not drawn): the Potency was inactive: > 76.9 µM.
The same measure for `COCCN(C(=O)Cc1cccs1)c1nnc(-c2cccnc2)s1`: inactive: > 76.9 µM; for `COc1ccc(S(=O)(=O)NCCc2csc(C)n2)cc1C`: inactive: > 76.9 µM; for `COc1ccc(C2NC(=O)c3ccccc3O2)c(OC)c1OC` (stereo not drawn): inactive: > 76.9 µM.
The figure for `CCc1nnc(NC(=O)CSc2nc3c(cc2C#N)CCCC3)s1` is inactive: > 76.9 µM.
Regarding `O=c1[nH]c(CSc2nc3ccccc3o2)nc2c1cnn2-c1ccccc1`, the Potency is inactive: > 76.9 µM.
For `Cc1nc(CC(=O)Nc2nc(C(C)(C)C)cs2)cs1`, the Potency was inactive: > 76.9 µM.
Consider `Cn1c(SCC(N)=O)nnc1C1CCN(C(=O)NCc2ccccc2)CC1`, for which the Potency is inactive: > 76.9 µM.
The same measure for `Cc1ccc2c(c1)sc1ncc(NC(=O)c3ccccc3)c(=O)n12`: inactive: > 76.9 µM; for `CC1(C)CC(=O)C2=C(C1)N(CC1CCCO1)C(=O)NC2(C(F)(F)F)C(F)(F)F` (stereo not drawn): inactive: > 76.9 µM; for `CCOC(=O)CSc1nnc(CNC(=O)c2ccc(S(=O)(=O)N3CCCCC3)cc2)n1C`: inactive: > 76.9 µM.
The figure for `O=C(Cn1nc(C(F)(F)F)c2c1CCCCC2)N1CCOCC1` is inactive: > 76.9 µM.
In the case of `Cc1ccc(NC(=O)C2CCCN(c3ncccn3)C2)cc1F` (stereo not drawn), the Potency was inactive: > 76.9 µM.

The values above are taken from PubChem BioAssay AID360 (National Center for Advancing Translational Sciences (NCATS), 2006).
